Data as given in the RNAGym collection of RNA variant scans (doi:10.7554/elife.90254).
Read counts are not given, so values of variants with three or more changes are uncertain.

B1: LINE1-mini (parent)
chain: GGCAGAGCUCAACACAGCGUGGCAAAGUGGCUGUGGCUAGACUGCC

Variants of: B1
Experiment: self-cleavage, relative activity (ratio to wild type); higher = more cleavage; in vitro, sequencing; the parent is a self-cleaving ribozyme
GGCAGAGCUCAACACAGCGUGGCAAAGUGUCUGUGGCUAGUCUGUC [G30U A41U C45U] gave a self-cleavage of 0.35.
For GGCAGAGCUCAACACAGCGUGGCAAAGUGCCUGCCGCUAGACUGCC [G30C U34C G35C], the self-cleavage was 0.09.
Work on GGCAGAGCUCAACACAGCGUGGCAAAGUUGCGGUGACUAGACUGCC [G29U U32G G36A] yielded a self-cleavage of 0.05.
For GGCAGAGCUCAACACAGCGUGGCAAAGUUGCUGUGGCUCGACUGUC [G29U A39C C45U], the self-cleavage was 0.05.
Work on GGCAGAGCUCAACACAGCGUGGCAAAGUUGCUGUGGAUCGACUGCC [G29U C37A A39C] yielded a self-cleavage of 0.05.
In the case of GGCAGAGCUCAACACAGCGUGGCAAAGUUGCUGUGACUAGAGUGCC [G29U G36A C42G], the self-cleavage is reported as 0.
GGCAGAGCUCAACACAGCGUGGCAAAGUGACUGUGUCUAGACUGCG [G30A G36U C46G] showed a self-cleavage of 0.01.
GGCAGAGCUCAACACAGCGUGGCAAAGUGCCUGUGGCUAGUUUGCC [G30C A41U C42U] showed a self-cleavage of 0.04.
GGCAGAGCUCAACACAGCGUGGCAAAGUCGCUGUGGCGAGCUUGCC [G29C U38G A41C C42U] gave a self-cleavage of 0.
Work on GGCAGAGCUCAACACAGCGUGGCAAAGUGACUGAGUCUAGACUGCC [G30A U34A G36U] yielded a self-cleavage of 0.05.
GGCAGAGCUCAACACAGCGUGGCAAAGUCGCAGUGGAUAGACUGCC [G29C U32A C37A] showed a self-cleavage of 0.03.
GGCAGAGCUCAACACAGCGUGGCAAAGUGACUUUGACUAGACUGCC [G30A G33U G36A] gave a self-cleavage of 0.02.
Work on GGCAGAGCUCAACACAGCGUGGCAAAGUUGCUGCGGCUAGACUGAC [G29U U34C C45A] yielded a self-cleavage of 0.08.
Variant GGCAGAGCUCAACACAGCGUGGCAAAGUUGGUGUGGAUAGACUGCC [G29U C31G C37A] has a self-cleavage of 0.21.
Work on GGCAGAGCUCAACACAGCGUGGCAAAGUGACGAUGGCUUGACUGCC [G30A U32G G33A A39U] yielded a self-cleavage of 0.05.
In the case of GGCAGAGCUCAACACAGCGUGGCAAAGUCGCAGUGGCUAGACUGCG [G29C U32A C46G], the self-cleavage is reported as 0.1.
For GGCAGAGCUCAACACAGCGUGGCAAAGUUGGUGUGGCUGUACUGCC [G29U C31G A39G G40U], the self-cleavage was 0.04.
GGCAGAGCUCAACACAGCGUGGCAAAGUCGCUUAGGCUAGACUGCC [G29C G33U U34A] showed a self-cleavage of 0.11.
Work on GGCAGAGCUCAACACAGCGUGGCAAAGUGCCCGUGGCUAGACUUCC [G30C U32C G44U] yielded a self-cleavage of 0.06.
For GGCAGAGCUCAACACAGCGUGGCAAAGUGCCUGUGGCGAAACAGCC [G30C U38G G40A U43A], the self-cleavage was 0.12.
Variant GGCAGAGCUCAACACAGCGUGGCAAAGUCGCUGUAUCUACACUGCC [G29C G35A G36U G40C] has a self-cleavage of 0.05.
Work on GGCAGAGCUCAACACAGCGUGGCAAAGUGACUGUGGCUACACUGCU [G30A G40C C46U] yielded a self-cleavage of 0.07.
GGCAGAGCUCAACACAGCGUGGCAAAGUUGCUGUGGCUAGCCUGUC [G29U A41C C45U] showed a self-cleavage of 0.01.
In the case of GGCAGAGCUCAACACAGCGUGGCAAAGUUGCUGUGAAUAGACUGCA [G29U G36A C37A C46A], the self-cleavage is reported as 0.35.
Work on GGCAGAGCUCAACACAGCGUGGCAAAGUUGCUGUGACUAUACUGCC [G29U G36A G40U] yielded a self-cleavage of 0.19.
In the case of GGCAGAGCUCAACACAGCGUGGCAAAGUUGCUGUGACUACACUGCC [G29U G36A G40C], the self-cleavage is reported as 0.09.
For GGCAGAGCUCAACACAGCGUGGCAAAGUUGCUGUGGCUAGACCCCC [G29U U43C G44C], the self-cleavage was 0.03.
For GGCAGAGCUCAACACAGCGUGGCAAAGUGCCUGUGGCCUGACUGCC [G30C U38C A39U], the self-cleavage was 0.87.
With GGCAGAGCUCAACACAGCGUGGCAAAGUUGCUGUUGCUAAACUGCC [G29U G35U G40A] the self-cleavage was 0.05.
GGCAGAGCUCAACACAGCGUGGCAAAGUGCCUGUUGCUAGACUCCC [G30C G35U G44C] gave a self-cleavage of 0.02.
For GGCAGAGCUCAACACAGCGUGGCAAAGUGCCUGUGGCUGGACAGCC [G30C A39G U43A], the self-cleavage was 0.15.
Variant GGCAGAGCUCAACACAGCGUGGCAAAGUGACUGUGGAUCGACUGCC [G30A C37A A39C] has a self-cleavage of 0.48.
With GGCAGAGCUCAACACAGCGUGGCAAAGUGACCGUUGCUAGACUGCC [G30A U32C G35U] the self-cleavage was 0.04.
GGCAGAGCUCAACACAGCGUGGCAAAGUCGCUGUGGCUAAAGUCCC [G29C G40A C42G G44C] showed a self-cleavage of 0.02.
Variant GGCAGAGCUCAACACAGCGUGGCAAAGUGACUGUGGGUAGACUGCG [G30A C37G C46G] has a self-cleavage of 0.02.
GGCAGAGCUCAACACAGCGUGGCAAAGUGCCUGUGGCAAGGCUGCC [G30C U38A A41G] showed a self-cleavage of 0.29.
Variant GGCAGAGCUCAACACAGCGUGGCAAAGUGACUGUGGCUAGACUCGC [G30A G44C C45G] has a self-cleavage of 0.06.
In the case of GGCAGAGCUCAACACAGCGUGGCAAAGUUGCUGUGGCUAGAGUGAC [G29U C42G C45A], the self-cleavage is reported as 0.06.
GGCAGAGCUCAACACAGCGUGGCAAAGUGACUGUUCCUAGACUGCC [G30A G35U G36C] gave a self-cleavage of 0.06.
Work on GGCAGAGCUCAACACAGCGUGGCAAAGUGACUGUGGCUAGAAUUCC [G30A C42A G44U] yielded a self-cleavage of 0.03.
GGCAGAGCUCAACACAGCGUGGCAAAGUCGCUGUGGCUAAAAUGCC [G29C G40A C42A] showed a self-cleavage of 0.01.
Variant GGCAGAGCUCAACACAGCGUGGCAAAGUGCCUGUGUAUAGACUGCC [G30C G36U C37A] has a self-cleavage of 0.07.
GGCAGAGCUCAACACAGCGUGGCAAAGUGCCAGUGGCUAGGCUGUC [G30C U32A A41G C45U] showed a self-cleavage of 0.03.
GGCAGAGCUCAACACAGCGUGGCAAAGUGACGGUGGCUAGAUUGCC [G30A U32G C42U] gave a self-cleavage of 0.03.
GGCAGAGCUCAACACAGCGUGGCAAAGUGACUGAGGCUAGAAUGCC [G30A U34A C42A] gave a self-cleavage of 0.03.
With GGCAGAGCUCAACACAGCGUGGCAAAGUGCCUGUGGCCAGACUGAC [G30C U38C C45A] the self-cleavage was 0.05.
In the case of GGCAGAGCUCAACACAGCGUGGCAAAGUGACCGUGGCUAGCAUGCC [G30A U32C A41C C42A], the self-cleavage is reported as 0.01.
GGCAGAGCUCAACACAGCGUGGCAAAGUCGCGGUGUCUGGACUGCC [G29C U32G G36U A39G] showed a self-cleavage of 0.
GGCAGAGCUCAACACAGCGUGGCAAAGUGCCUGUGGCUAGAUGGCC [G30C C42U U43G] showed a self-cleavage of 0.03.
For GGCAGAGCUCAACACAGCGUGGCAAAGUUGCUGUGGCUUGACUGCU [G29U A39U C46U], the self-cleavage was 1.26.
GGCAGAGCUCAACACAGCGUGGCAAAGUUACUGUGGCUAGACUGUC [G29U G30A C45U] gave a self-cleavage of 1.59.
With GGCAGAGCUCAACACAGCGUGGCAAAGUGCCGGUGGCUAGACUGCG [G30C U32G C46G] the self-cleavage was 0.03.
Variant GGCAGAGCUCAACACAGCGUGGCAAAGUGACUGGGGCUACGCUCCC [G30A U34G G40C A41G G44C] has a self-cleavage of 0.01.
Variant GGCAGAGCUCAACACAGCGUGGCAAAGUUGCGGUGGCUAGACUGAC [G29U U32G C45A] has a self-cleavage of 0.04.
Work on GGCAGAGCUCAACACAGCGUGGCAAAGUGACUGUCGCUAGACCGCC [G30A G35C U43C] yielded a self-cleavage of 0.11.
Work on GGCAGAGCUCAACACAGCGUGGCAAAGUGCCUGAGGCCAUACUACC [G30C U34A U38C G40U G44A] yielded a self-cleavage of 0.06.
